Measured values taken from the supplement of paper PMC12217912.
This is one part of the list. Sequences were assembled here from the parent chain. Inactive controls read about 0.05.

B1: TEV protease; numbered along this chain (parent)
chain: MGESLFKGPRDYNPISSSICHLTNESDGHTTSLYGIGFGPFIITNKHLFRRNNGTLVVQSLHGVFKVKDTTTLQQHLVDGRDMIIIRMPKDFPPFPQKLKFREPQREERICLVTTNFQTKSMSSMVSDTSCTFPSGDGIFWKHWIQTKDGQCGSPLVSTRDGFIVGIHSASNFTNTNNYFTSVPKNFMELLTNQEAQQWVSGWRLNADSVLWGGHKVFMVKPEEPFQPVKEATQL

Variants of: B1
Experiment: raw area under fraction-flipped curve 0-4 h after induction (AUC4h, not background-subtracted), DNA-recorder readout of cleavage of the substrate (dimensionless); higher = more cleavage of the substrate by the protease variant
Details: temperature: 34 °C; time window: 0-4 h after rhamnose induction
Method: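 In vivo DNA recorder in E. coli TOP10(DE3) ΔrhaA at 34 °C. Each TEVp single-site mutant (parent TEVp 0) is paired with a single-site variant of the 7-mer TEVs (canonical ENLYFQ|S). The substrate sits between flexible linkers in a Bxb1-sfGFP-TEVs-SsrA fusion, so cleavage stabilises Bxb1 and speeds flipping of a recombination array, read by NGS. The value is the raw area under the fraction-flipped curve over 0-4 h after rhamnose induction (AUC4h), with ≥20 reads per time point. It is not background-subtracted; inactive controls average about 0.047.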
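Further: Bxb1 expression induced with 0.2% (w/v) L-rhamnose at OD600 near 0.5, cultures sampled hourly, flipped fraction per protease–substrate barcode pair counted by paired-end Illumina sequencing.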

Row | Variant | area with substrate ENLAFQS | area with substrate ENLDFQS | area with substrate ENLEFQS | area with substrate ENLFFQS | area with substrate ENLGFQS | area with substrate ENLHFQS | area with substrate ENLIFQS | area with substrate ENLLFQS | area with substrate ENLNFQS | area with substrate ENLPFQS | area with substrate ENLRFQS | area with substrate ENLSFQS | area with substrate ENLTFQS | area with substrate ENLWFQS | area with substrate ENLCFQS | area with substrate ENLVFQS | area with substrate ENLKFQS | area with substrate ENLMFQS | area with substrate ENLQFQS
1 | K98Y | 0.0655 | 0.0737 | 0.0668 | 0.0836 | 0.0733 | 0.067 | 0.0835 | 0.0919 | 0.0623 | 0.0638 | 0.0756 | 0.0644 | 0.0572 | 0.064 |  |  |  |  | 
2 | K100A | 0.0625 | 0.0842 |  |  |  | 0.0673 | 0.0636 | 0.0594 | 0.0543 | 0.0523 |  |  |  |  | 0.0891 | 0.0743 |  |  | 
3 | F101T | 0.0533 | 0.0557 | 0.0607 |  | 0.058 |  |  | 0.0512 | 0.051 | 0.0385 |  |  |  |  | 0.0484 |  | 0.074 | 0.0782 | 
4 | E103F | 0.0715 | 0.0712 | 0.0695 |  |  |  | 0.0939 | 0.0853 |  | 0.0728 | 0.058 |  |  |  | 0.0616 |  |  |  | 0.0737
5 | P104E | 0.0682 | 0.0626 | 0.0492 | 0.0497 |  | 0.0484 | 0.0643 |  | 0.0522 | 0.0468 | 0.0517 | 0.0607 |  |  | 0.0464 |  | 0.115 | 0.0267 | 
6 | P104Q | 0.0553 | 0.0527 | 0.0411 | 0.0701 |  |  |  |  | 0.0472 |  | 0.0402 | 0.0459 |  | 0.0517 |  |  |  |  | 0.0128
7 | Q105H | 0.0706 | 0.068 | 0.07 | 0.0826 | 0.0648 | 0.0662 | 0.0944 |  | 0.0582 | 0.0919 |  | 0.0513 |  |  | 0.0571 |  | 0.073 |  | 0.079
8 | E107C | 0.0653 | 0.0669 |  | 0.0822 | 0.076 | 0.0749 | 0.0707 | 0.069 | 0.08 |  |  | 0.103 |  |  |  |  |  | 0.0746 | 
9 | E108C | 0.0523 | 0.062 | 0.0343 | 0.0624 | 0.0605 | 0.0713 | 0.0812 | 0.0642 | 0.0621 | 0.0482 | 0.0581 | 0.0567 |  |  | 0.0671 | 0.0664 | 0.0672 |  | 0.0664
10 | E108H | 0.0663 | 0.0631 | 0.0609 | 0.0609 |  | 0.0608 | 0.0587 | 0.0531 | 0.0572 | 0.0646 | 0.0655 | 0.0543 |  | 0.0659 | 0.0535 | 0.0584 | 0.0701 |  | 
11 | E108L | 0.0647 | 0.098 |  | 0.0647 |  |  | 0.057 | 0.0696 |  |  |  |  |  |  |  | 0.0642 | 0.0486 |  | 0.0542
12 | R109F | 0.067 |  | 0.0559 | 0.0906 |  |  | 0.0915 |  | 0.0674 |  | 0.0248 | 0.0909 |  |  | 0.0852 | 0.0623 | 0.0697 |  | 
13 | I110C | 0.0715 | 0.0497 | 0.0529 | 0.097 | 0.062 | 0.074 |  |  | 0.0452 | 0.0382 | 0.0761 | 0.0623 | 0.0585 | 0.068 | 0.0777 |  | 0.0742 | 0.0741 | 0.0551
14 | C111F | 0.0483 |  | 0.0653 | 0.0933 | 0.0811 | 0.087 | 0.0516 | 0.0753 | 0.0171 | 0.0502 | 0.084 | 0.0435 |  | 0.0761 | 0.0717 | 0 | 0.0152 |  | 0.0936
15 | C111R | 0.0596 | 0.0524 | 0.0782 | 0.0735 |  | 0.0892 | 0.101 |  |  |  | 0.0628 | 0.063 |  |  |  | 0.0862 | 0.0739 |  | 
16 | C111V | 0.0467 | 0.0552 |  | 0.0674 |  | 0.0689 |  |  | 0.0448 | 0.051 | 0.069 | 0.0596 |  |  | 0.0996 | 0.0856 |  |  | 
17 | L112P | 0.0439 | 0.0536 | 0.0547 | 0.0833 | 0.0599 | 0.0599 | 0.032 | 0.052 | 0.0599 | 0.0561 | 0.0546 | 0.0585 |  |  | 0.0543 | 0.0501 | 0.0602 | 0.0632 | 0.0561
18 | T114C | 0.0526 |  |  | 0.097 |  | 0.0891 |  |  | 0.0672 |  |  |  |  |  | 0.0655 | 0.0931 | 0.0835 |  | 0.0687
19 | T115D | 0.061 | 0.0522 |  | 0.0591 | 0.0653 | 0.0657 |  | 0.074 | 0.102 |  | 0.0731 |  |  | 0.0539 |  |  | 0.0735 |  | 
20 | T115S | 0.0732 | 0.0549 | 0.0445 | 0.0721 |  | 0.0978 | 0.0451 | 0.0559 | 0.0715 | 0.053 | 0.0771 | 0.0719 |  | 0.0891 | 0.0852 |  | 0.0878 |  | 0.0584
21 | N116M | 0.0597 | 0.0786 |  |  |  | 0.0732 | 0.116 |  | 0.0841 |  |  |  |  |  | 0.0817 |  |  |  | 
22 | N116R | 0.069 | 0.068 | 0.0634 |  |  |  | 0.084 |  | 0.0743 | 0.0347 |  | 0.0544 |  |  | 0.0609 |  | 0.0836 |  | 
23 | F117D | 0.0618 |  | 0.0767 | 0.0926 |  | 0.0705 |  |  |  | 0.0642 |  |  |  |  | 0.0681 |  | 0.0846 | 0.0834 | 
24 | K120R | 0.0655 | 0.065 | 0.0595 | 0.088 | 0.0698 | 0.0627 |  |  | 0.07 | 0.0957 |  | 0.0613 | 0.0568 | 0.0941 | 0.0784 | 0.0396 | 0.0799 | 0.0532 | 0.0885
25 | S121R | 0.0617 | 0.0672 | 0.0634 | 0.0739 | 0.0676 |  |  | 0.0734 | 0.0665 | 0.064 | 0.0762 |  |  | 0.0585 | 0.0986 | 0.108 | 0.0812 | 0.0858 | 
26 | M122C | 0.0615 | 0.0396 | 0.0528 | 0.0947 |  | 0.08 | 0.0869 |  | 0.0669 | 0.0588 | 0.0866 | 0.0715 | 0.0751 | 0.0564 | 0.0803 |  | 0.0744 | 0.0856 | 0.0671
27 | S123F | 0.0695 | 0.0546 | 0.071 | 0.096 |  | 0.0578 |  | 0.0592 | 0.0501 | 0.0522 | 0.0738 | 0.0659 |  | 0.0796 |  |  | 0.0823 |  | 0.0717
28 | S127F | 0.0652 | 0.049 | 0.081 | 0.14 |  | 0.0803 | 0.0834 |  | 0.0728 | 0.0674 |  | 0.0655 |  | 0.101 | 0.0825 | 0.102 | 0.0925 |  | 0.0745
29 | S127V | 0.0645 | 0.0686 | 0.0743 | 0.084 | 0.0673 | 0.0699 |  |  | 0.0698 | 0.0508 | 0.0721 | 0.0589 |  | 0.0562 | 0.0661 | 0.0873 | 0.0789 | 0.0878 | 
